Measurements published in PubChem BioAssay AID686978 (National Center for Advancing Translational Sciences (NCATS), 2013).
Among all 420,000 compounds or so, about 64,000 (15%) were called active. Inconclusive results, whose numbers are uncertain, are shown with a selection of clear calls. Calls come from the whole dose curve; as a rule, active = well fitted inhibition curve with a large enough effect; inconclusive = small, poorly fitted or top-dose-only effect; inactive = flat fitted curve, though single readings scatter. Potencies of inconclusive entries are left out as doubtful fits.

Test: qHTS for Inhibitors of human tyrosyl-DNA phosphodiesterase 1 (TDP1): qHTS in cells in absence of CPT; note: nearly all actives have a fitted effect of over 55% in size
Settings: DT40 Tdp1-/- hTDP1 cells, no CPT, ATP luminescence, 48 h; activity change, negative = growth inhibition: at 46.2 µM (top of the series) unless noted
Method in brief: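 Cells were dispensed at 400 per well, compounds added by pin tool, plates incubated ≥48 hr at 37 °C, then CellTiter-Glo added for 30 min at room temperature before luminescence reading. Line: DT40 Tdp1-/- complemented with hTDP1; camptothecin omitted.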
% is set by controls: 0 for no effect and ±100 for the full control effect; potency is the fitted concentration of half-maximal effect; tags give direction and shape of the fitted curve.

| SMILES | Potency | activity change, negative = growth inhibition |
| --- | --- | --- |
| O=C(c1ccc(S(=O)(=O)N2CCOCC2)cc1)N1CCN(c2ccccc2)CC1 | inconclusive [inhibitor, single point] |  |
| COc1ccc(Cn2c(-c3ccc(C)cc3)nc3c(c(=O)c4ccccc4n3C)c2=O)cc1 | inconclusive [inhibitor, single point] |  |
| CCc1noc(C)c1C(=O)NCCN1C(=O)S/C(=C\c2ccccc2F)C1=O | active: 18.4 µM |  |
| c1ccc(-c2csc(Nc3ccccn3)n2)cc1 | inconclusive [inhibitor, partial curve, poor fit] |  |
| CCOC(=O)C(Sc1nnc2c3ccccc3n(CC)c2n1)C(=O)OCC | inconclusive [inhibitor, single point] |  |
| Cc1ccc(CC(=O)N2CCN(c3cccc(C(F)(F)F)c3)CC2)cc1 | active: 18.4 µM |  |
| O=c1cc(-c2ccccc2)c2cc(Cl)c3c(c2o1)CN(Cc1ccccc1)CO3 | inconclusive [inhibitor, single point] |  |
| COc1cc(SC)ccc1C(=O)Nc1ccc(C)cc1 | inconclusive [inhibitor, partial curve] |  |
| OCc1ccc(-c2cncc3nccn23)cc1 |  | inactive: -18.6% |
| O=C(N/N=C/c1cccnc1)c1cc(-c2ccccc2OCc2ccccc2)n[nH]1 | active: 23.1 µM |  |
| CCOC(=O)c1ccc(N2C(=O)c3n[nH]c(-c4cccs4)c3C2c2ccc(C(C)C)cc2)cc1 (centres undefined) | active: 16.4 µM |  |
| CN1CCCN=C1COC(=O)C(O)(c1ccccc1)C1CCCCC1 (centres undefined) | inconclusive [inhibitor, single point] |  |
| Cc1ccc2c(c1)c1c(c(=O)n(-c3ccccc3C)c(=O)n1CC(=O)NCc1ccccc1)n2C | active: 18.4 µM |  |
| Cn1c(=O)c2cc(NC(=O)NCc3ccc(Cl)cc3Cl)ccc2n1Cc1ccc(F)cc1 | inconclusive [inhibitor, single point] |  |
| Cc1cc(C)c(C)c(S(=O)(=O)Nc2cccc(-n3cnnn3)c2)c1C | inconclusive [inhibitor, partial curve] |  |
| Cc1ccc(N(CC(=O)NC2CCCC2)C(=O)CCC(=O)Nc2ccccn2)cc1 | inconclusive [inhibitor, partial curve, poor fit] |  |
| O=S(=O)(c1ccccc1)N1CCC2(CC1)CO2 |  | inactive: -19.5% |
| COC(=O)c1ccc(NCC(=O)c2ccccc2)cc1 | inconclusive [inhibitor, full curve, poor fit] |  |
| Cc1ccc(OCCCn2c(CCNC(=O)C3CCCCC3)nc3ccccc32)c(C)c1 | inconclusive [inhibitor, single point] |  |
| Cc1ccc(S(=O)(=O)N2CCOCC2)cc1NC(=O)CN1CCN(c2ccc(O)cc2)CC1 | active: 25.9 µM |  |
| CCOC(=O)c1c(Oc2ccc(OC)cc2)nnc(-c2ccccc2)c1-c1ccccc1 | inconclusive [inhibitor, single point] |  |
| COC(=O)[C@H](CC(C)C)NC(=O)Cn1cnc2c(NCc3ccccc3)ncnc21 |  | inactive: -4.53% |
| COc1cccc(CNCC(O)(c2ccc(Cl)cc2)c2ccc(Cl)cc2)c1 | active: 23.1 µM |  |

| SMILES | Potency | activity change, negative = growth inhibition |
| --- | --- | --- |
| Cc1c(-c2ccccc2)nc(-c2ccccc2)[nH]c1=O |  | inactive: -15.7% |
| CCN(CC)S(=O)(=O)c1cc(OC)ccc1N=Nc1ccc(O)c2ncccc12 | inconclusive [inhibitor, full curve] |  |
| Cc1cccc(C)c1OCC1CNC(=O)O1 (centres undefined) | inconclusive [inhibitor, single point] |  |
| COc1cc(/C=N/n2cnc3c(sc4nc(C)cc(C)c43)c2=O)ccc1O |  | inactive: -19.4% |
| COc1ccccc1NC(=O)Cn1c(=O)n(Cc2ccco2)c(=O)c2cccnc21 | inconclusive [inhibitor, single point] |  |
| Cc1cc(-c2ccc(C)c(S(=O)(=O)N(C)c3ccc(C)c(C)c3)c2)on1 | inconclusive [inhibitor, single point] |  |
| CCCCc1ccc(NC(=O)CN2C(=O)C3CCCCC3C2=O)cc1 (centres undefined) | inconclusive [inhibitor, single point] |  |
| Cc1ccc(OCCN2C(=O)C(=O)c3cccc(C)c32)cc1 | active: 2.91 µM |  |
| CC(C)Cc1ccc(CN2CCCC(NC(=O)c3nn(C)c(=O)c4ccccc34)C2)cc1 (centres undefined) | inconclusive [inhibitor, single point] |  |
| CC1(C(=O)NS(=O)(=O)C2CC2)CCCN(C(=O)c2cccnc2Oc2ccccc2)C1 (centres undefined) | active: 1.03 µM |  |
| COc1cccc(O)c1CN1CCC2(CC1)c1ccccc1[C@@H](NC(=O)c1ccsc1)[C@@H]2OC | inconclusive [inhibitor, single point] |  |
| Cc1oc(-c2ccccc2)nc1Cn1cccc1C1=NC(c2ccccc2)CO1 (centres undefined) | active: 23.1 µM |  |
| Cc1ccccc1S(=O)(=O)N1[C@@H](c2cccc(Cl)c2)C(C(=O)OC(C)(C)C)=CC[C@H]1c1ccc(Cl)cc1 | active: 16.4 µM |  |
| CC(=O)Nc1ccc(Nc2ncnc(N)c2[N+](=O)[O-])cc1 | inconclusive [inhibitor, single point] |  |
| CN(Cc1cn(Cc2ccc(Cl)cc2)nn1)C1CN(Cc2cn(Cc3ccc(Cl)cc3)nn2)S(=O)(=O)C1 (centres undefined) | active: 13 µM |  |
| COc1ccc(C(=O)/C=C/c2ccc(OC)c(COc3ccccc3F)c2)cc1 | inconclusive [inhibitor, single point] |  |
| COc1ccc(C(=O)c2sc(Nc3cccc(OC)c3)c(C(=O)Nc3cccc(C)c3C)c2N)cc1 | active: 10.3 µM |  |
| CCOCCc1nnc(NC(=O)c2ccc(OC)c(OC)c2)s1 | inconclusive [inhibitor, single point] |  |
| O=C(NCc1ccco1)c1cc(C(=O)C2CCCCC2)c[nH]1 |  | inconclusive: -33.7% [inhibitor] |
| COc1ccc(OC)c(NC(=O)CN2C(=O)c3ccccc3Sc3ccc(C(=O)N4CCCC4)cc32)c1 | inconclusive [inhibitor, single point] |  |
| Cc1onc(-c2ccc(F)cc2F)c1C(=O)Nc1cccc(C(F)(F)F)c1 | inconclusive [inhibitor, partial curve, poor fit] |  |
| O=C(Nc1ccc(O)cc1)c1ccc(NC(=O)c2ccco2)cc1 | inconclusive [inhibitor, partial curve, poor fit] |  |
| CC1=C(C(=O)OC2CCCCC2)C(c2ccc(F)cc2)NC(=O)N1 (centres undefined) | inconclusive [inhibitor, single point] |  |

| SMILES | Potency | activity change, negative = growth inhibition |
| --- | --- | --- |
| CCc1nc2c(OCCOc3ccccc3)cccn2c1N(C)C(=O)c1ccc(OC)cc1 | inconclusive [inhibitor, single point] |  |
| CCOC(=O)N1CCC(N2Cc3cccc(C(=O)NCc4ccc5c(c4)OCO5)c3C2=O)CC1 | inconclusive [inhibitor, partial curve] |  |
| COc1cc(C)c(/C=C(\C#N)C(=O)Nc2ccc(C)cc2)cc1C(C)C |  | inconclusive: -32.7% [inhibitor] |
| Cc1nccn1CCCN1C(=O)OC2(CCCCC2)C1(C)O (centres undefined) | active: 20.6 µM |  |
| COc1ccc2[nH]c(=O)c(CN(C(C)=O)c3ccc(C)c(C)c3)cc2c1 | inconclusive [inhibitor, partial curve] |  |
| CCOC(=O)C1CCN(S(=O)(=O)CCNC(=O)c2cccc(OC)c2)CC1 |  | inactive: 5.93% |
| CC(C)Sc1ncc(Cl)c(C(=O)Nc2nnc(C(C)C)s2)n1 |  | inactive: -10.2% |
| Cc1ccc2cc(C#N)c(N3CCN(C)CC3)nc2c1 |  | inactive: -11.2% |
| CCOc1ccccc1NC(=O)CN(c1ccc(OC)cc1OC)S(=O)(=O)c1ccccc1[N+](=O)[O-] | inconclusive [inhibitor, single point] |  |
| COc1ccc(N2CSC3=C(C#N)C(c4cc(OC)ccc4OC)CC(=O)N3C2)c(OC)c1 (centres undefined) | inconclusive [inhibitor, single point] |  |
| CCOC(=O)c1c(C)oc2c1c1c(c3ccccc32)OCN(Cc2cccnc2)C1 | inconclusive [inhibitor, single point] |  |
| CC(O)[C@H]1CC[C@H]2[C@@H]3CC[C@H]4C[C@H](O)CC[C@]4(C)[C@H]3[C@H](O)C[C@]12C (some centres undefined) |  | inactive: -13.2% |
| O=C1NC(c2ccccn2)Nc2sc3c(c21)CCC3 (centres undefined) | inconclusive [inhibitor, partial curve] |  |
| Nc1ccc(Br)cc1Br |  | inactive: 16.7% |
| COc1cc(/C=N/n2c(-c3ccc4c(c3)NC(=O)CO4)csc2=Nc2cccc(C)c2)ccc1O | inconclusive [inhibitor, single point] |  |
| COc1cccc(NC(=S)NCc2ccccc2)c1 | inconclusive [inhibitor, single point] |  |
| COc1ccc(CC(C)CC(=O)Nc2ccc(OC)cc2)cc1 (centres undefined) | inconclusive [inhibitor, single point] |  |
| Cc1cc(NC(=O)CSc2nnnn2Cc2ccccc2)no1 |  | inactive: -22.5% |
| COc1ccccc1C(=O)Nc1nnc(SCC(=O)Nc2ccc3c(c2)oc2ccccc23)s1 | inconclusive [inhibitor, single point] |  |
| COc1ccc2oc(C(=O)OC(C)C(=O)NCc3ccccc3)c(C)c2c1 (centres undefined) | inconclusive [inhibitor, single point] |  |
| Cc1ncc2c(c1CNC(=O)c1ccc3c(c1)OCO3)CCN(C(=O)C1Cc3ccccc3O1)C2 (centres undefined) |  | inactive: -5.13% |
| COc1ccc(NS(=O)(=O)c2cc(C(=O)N3CCCCCC3)ccc2C)cc1 |  | inactive: -2.47% |
| CCc1ccc(CNC(=O)c2cc(-c3ccc(Br)s3)nc3ccccc23)cc1 | active: 18.4 µM |  |
